Data published in PMC4237283.
Read-outs that look alike come from different tables or passages of the source. These are yes or no findings as the source states them, for the method shown. Binding seen in cells or lysates may run through a third protein. Some binding calls cover weakened binding; strength is not graded here.

The chains behind the UniProt entries cited, without tags or fusion partners. Where a name states a change or a piece, a line headed by the entry shows the natural chain unless it says otherwise. A line that says so, or that is headed by a name, gives the form on record, which may keep a tag or linker. Residues count along the entry.
UniProt O08852: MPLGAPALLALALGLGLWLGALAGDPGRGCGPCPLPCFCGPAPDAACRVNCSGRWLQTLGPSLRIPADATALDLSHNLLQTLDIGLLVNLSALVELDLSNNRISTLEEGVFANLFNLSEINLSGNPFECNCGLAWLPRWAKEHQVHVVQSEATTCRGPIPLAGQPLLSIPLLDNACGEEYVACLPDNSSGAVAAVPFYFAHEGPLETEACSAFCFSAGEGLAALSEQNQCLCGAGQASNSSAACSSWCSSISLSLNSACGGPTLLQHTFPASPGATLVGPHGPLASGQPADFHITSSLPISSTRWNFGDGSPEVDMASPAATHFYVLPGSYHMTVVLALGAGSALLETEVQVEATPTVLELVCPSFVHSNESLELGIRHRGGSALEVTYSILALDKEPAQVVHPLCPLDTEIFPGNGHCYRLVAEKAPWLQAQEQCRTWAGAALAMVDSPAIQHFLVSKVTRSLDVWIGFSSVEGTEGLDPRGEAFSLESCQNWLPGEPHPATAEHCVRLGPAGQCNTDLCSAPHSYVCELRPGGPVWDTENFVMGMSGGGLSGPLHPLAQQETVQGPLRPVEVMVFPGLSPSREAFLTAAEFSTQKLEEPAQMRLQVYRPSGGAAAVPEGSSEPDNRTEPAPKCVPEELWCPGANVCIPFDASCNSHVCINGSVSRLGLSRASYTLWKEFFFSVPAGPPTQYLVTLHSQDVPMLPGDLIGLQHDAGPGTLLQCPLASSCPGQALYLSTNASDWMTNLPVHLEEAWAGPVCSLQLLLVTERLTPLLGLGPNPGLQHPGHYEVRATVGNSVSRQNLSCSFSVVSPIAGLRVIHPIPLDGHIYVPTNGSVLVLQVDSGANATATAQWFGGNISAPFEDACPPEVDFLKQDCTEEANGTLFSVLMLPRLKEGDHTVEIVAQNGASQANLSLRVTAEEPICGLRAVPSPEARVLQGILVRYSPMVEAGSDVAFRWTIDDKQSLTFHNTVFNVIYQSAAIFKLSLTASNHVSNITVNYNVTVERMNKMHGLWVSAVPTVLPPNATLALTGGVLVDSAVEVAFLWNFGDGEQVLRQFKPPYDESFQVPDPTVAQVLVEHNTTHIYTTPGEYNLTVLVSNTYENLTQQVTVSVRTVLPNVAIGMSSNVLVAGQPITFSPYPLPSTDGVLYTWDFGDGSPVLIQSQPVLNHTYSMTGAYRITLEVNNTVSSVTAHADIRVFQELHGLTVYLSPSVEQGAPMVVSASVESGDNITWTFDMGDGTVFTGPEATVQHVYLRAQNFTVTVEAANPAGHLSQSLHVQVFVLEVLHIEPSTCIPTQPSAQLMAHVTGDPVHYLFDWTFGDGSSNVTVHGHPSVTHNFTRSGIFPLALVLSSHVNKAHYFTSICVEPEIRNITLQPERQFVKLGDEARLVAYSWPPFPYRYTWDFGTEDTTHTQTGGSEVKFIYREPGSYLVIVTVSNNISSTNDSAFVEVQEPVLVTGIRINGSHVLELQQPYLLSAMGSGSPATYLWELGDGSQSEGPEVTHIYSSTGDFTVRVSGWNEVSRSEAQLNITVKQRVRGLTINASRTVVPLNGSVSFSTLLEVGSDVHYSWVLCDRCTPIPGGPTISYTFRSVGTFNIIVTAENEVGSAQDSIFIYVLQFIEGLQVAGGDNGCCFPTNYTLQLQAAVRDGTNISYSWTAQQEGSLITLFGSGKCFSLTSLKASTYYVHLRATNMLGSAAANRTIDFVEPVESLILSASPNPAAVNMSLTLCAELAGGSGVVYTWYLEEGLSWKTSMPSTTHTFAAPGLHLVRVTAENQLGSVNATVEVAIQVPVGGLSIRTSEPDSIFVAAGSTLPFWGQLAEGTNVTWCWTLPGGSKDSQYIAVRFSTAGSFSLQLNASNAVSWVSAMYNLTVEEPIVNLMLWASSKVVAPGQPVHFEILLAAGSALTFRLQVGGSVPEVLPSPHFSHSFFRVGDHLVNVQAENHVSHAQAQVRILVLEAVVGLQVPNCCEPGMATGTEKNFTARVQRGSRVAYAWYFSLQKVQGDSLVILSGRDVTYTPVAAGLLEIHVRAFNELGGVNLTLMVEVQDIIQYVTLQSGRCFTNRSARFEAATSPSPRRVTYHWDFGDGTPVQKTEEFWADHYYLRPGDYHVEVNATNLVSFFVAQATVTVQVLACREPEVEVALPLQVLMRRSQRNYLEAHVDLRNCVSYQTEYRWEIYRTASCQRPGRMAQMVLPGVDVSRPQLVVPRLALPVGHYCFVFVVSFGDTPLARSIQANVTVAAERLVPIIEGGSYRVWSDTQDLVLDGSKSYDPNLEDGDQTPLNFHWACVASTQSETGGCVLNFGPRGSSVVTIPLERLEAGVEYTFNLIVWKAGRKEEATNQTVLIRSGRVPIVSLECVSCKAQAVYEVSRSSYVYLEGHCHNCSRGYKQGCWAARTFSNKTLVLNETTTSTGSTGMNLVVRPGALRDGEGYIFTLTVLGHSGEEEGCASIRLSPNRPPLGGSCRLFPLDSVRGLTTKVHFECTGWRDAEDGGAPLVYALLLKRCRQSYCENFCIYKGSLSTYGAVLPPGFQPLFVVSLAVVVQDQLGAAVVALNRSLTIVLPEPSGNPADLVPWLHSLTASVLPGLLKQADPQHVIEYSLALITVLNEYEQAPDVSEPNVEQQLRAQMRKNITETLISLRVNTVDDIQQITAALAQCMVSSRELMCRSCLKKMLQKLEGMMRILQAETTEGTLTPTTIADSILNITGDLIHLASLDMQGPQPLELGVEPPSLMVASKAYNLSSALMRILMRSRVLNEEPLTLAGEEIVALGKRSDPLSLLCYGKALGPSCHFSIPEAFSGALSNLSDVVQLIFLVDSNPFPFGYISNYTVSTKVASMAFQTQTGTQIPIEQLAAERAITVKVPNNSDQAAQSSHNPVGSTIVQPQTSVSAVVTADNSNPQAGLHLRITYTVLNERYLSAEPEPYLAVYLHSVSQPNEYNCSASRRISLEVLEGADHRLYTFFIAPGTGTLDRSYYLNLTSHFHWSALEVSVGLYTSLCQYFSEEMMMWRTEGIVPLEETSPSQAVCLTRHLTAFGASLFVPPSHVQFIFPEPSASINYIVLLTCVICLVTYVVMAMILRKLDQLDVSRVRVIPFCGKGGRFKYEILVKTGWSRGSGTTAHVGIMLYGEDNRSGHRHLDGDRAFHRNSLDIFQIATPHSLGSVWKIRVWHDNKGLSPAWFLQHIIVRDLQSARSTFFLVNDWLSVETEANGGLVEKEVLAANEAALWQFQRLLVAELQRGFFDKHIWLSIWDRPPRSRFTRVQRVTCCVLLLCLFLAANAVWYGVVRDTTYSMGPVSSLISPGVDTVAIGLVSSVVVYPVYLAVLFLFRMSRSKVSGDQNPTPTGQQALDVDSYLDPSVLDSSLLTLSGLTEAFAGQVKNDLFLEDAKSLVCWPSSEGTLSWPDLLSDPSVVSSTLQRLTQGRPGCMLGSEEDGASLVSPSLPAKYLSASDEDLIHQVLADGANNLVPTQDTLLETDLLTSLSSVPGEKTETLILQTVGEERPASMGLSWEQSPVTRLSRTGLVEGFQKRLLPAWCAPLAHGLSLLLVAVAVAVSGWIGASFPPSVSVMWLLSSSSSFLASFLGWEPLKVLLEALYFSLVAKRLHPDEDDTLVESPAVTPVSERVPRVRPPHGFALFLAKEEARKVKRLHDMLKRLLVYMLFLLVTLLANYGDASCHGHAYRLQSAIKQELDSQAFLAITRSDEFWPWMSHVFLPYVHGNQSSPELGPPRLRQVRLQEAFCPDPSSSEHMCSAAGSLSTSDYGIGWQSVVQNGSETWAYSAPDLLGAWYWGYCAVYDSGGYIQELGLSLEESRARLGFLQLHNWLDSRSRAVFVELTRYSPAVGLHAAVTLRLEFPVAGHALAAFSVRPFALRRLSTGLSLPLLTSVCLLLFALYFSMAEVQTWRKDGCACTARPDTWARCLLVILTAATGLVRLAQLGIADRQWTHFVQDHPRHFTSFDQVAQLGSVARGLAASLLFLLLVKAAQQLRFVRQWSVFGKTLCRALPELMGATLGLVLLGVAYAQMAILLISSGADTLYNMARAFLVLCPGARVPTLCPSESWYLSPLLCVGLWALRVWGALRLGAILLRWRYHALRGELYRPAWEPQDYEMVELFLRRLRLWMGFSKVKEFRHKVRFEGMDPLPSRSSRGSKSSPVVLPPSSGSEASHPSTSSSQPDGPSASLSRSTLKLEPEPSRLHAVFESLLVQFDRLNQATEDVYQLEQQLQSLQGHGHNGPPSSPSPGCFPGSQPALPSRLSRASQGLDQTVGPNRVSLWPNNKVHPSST
Endogenous mouse polycystin-1 (mouse (endogenous in MEFs, CD cells, kidney)): residues 24-4293 of O08852
Mouse polycystin-1 terminating at R4218X with a C-terminal FLAG tag before the stop codon: residues 24-4217 of O08852
UniProt Q9WUL7: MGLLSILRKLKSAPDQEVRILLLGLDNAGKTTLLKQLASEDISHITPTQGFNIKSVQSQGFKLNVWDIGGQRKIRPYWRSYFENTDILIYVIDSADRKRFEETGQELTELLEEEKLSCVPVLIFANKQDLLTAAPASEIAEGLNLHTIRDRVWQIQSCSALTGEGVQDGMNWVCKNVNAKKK
UniProt P61750: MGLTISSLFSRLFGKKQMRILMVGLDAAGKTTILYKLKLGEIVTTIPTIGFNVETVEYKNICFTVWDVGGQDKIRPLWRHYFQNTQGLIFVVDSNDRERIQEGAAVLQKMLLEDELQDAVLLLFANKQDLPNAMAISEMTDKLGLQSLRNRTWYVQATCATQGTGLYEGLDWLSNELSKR
UniProt A0A8I3NZH4: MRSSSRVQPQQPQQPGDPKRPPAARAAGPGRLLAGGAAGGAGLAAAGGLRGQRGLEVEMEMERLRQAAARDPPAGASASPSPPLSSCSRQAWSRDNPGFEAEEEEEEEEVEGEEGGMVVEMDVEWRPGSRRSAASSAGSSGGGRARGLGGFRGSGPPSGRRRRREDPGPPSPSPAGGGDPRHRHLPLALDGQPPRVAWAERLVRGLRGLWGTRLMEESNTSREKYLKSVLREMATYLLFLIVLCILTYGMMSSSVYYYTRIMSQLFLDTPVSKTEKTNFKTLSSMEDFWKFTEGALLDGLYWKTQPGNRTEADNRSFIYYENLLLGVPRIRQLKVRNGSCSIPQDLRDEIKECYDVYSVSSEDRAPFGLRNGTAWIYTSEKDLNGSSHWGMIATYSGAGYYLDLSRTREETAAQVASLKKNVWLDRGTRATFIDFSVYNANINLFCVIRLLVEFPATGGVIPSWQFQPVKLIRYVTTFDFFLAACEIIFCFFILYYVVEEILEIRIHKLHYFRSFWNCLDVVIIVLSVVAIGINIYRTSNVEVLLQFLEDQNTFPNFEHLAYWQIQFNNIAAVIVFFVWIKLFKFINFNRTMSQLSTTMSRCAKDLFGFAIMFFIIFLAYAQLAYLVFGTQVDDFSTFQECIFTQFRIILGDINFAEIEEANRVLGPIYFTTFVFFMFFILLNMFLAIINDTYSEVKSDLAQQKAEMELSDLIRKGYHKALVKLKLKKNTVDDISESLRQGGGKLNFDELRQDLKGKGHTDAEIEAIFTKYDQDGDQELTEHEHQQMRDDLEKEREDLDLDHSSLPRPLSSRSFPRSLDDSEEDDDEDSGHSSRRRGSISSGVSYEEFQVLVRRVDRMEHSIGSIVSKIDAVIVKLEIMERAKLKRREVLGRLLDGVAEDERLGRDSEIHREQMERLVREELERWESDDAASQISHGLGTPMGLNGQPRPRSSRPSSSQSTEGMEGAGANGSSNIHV

Experiments:
[1] = biological target: T1, Endogenous mouse GGA1 (Golgi-localized, gamma adaptin ear-containing, ARF-binding) (mouse (endogenous in CD cells, MEFs, embryos)) (UniProt Q8R0H9); assay: co-IP; endogenous GGA1 immunoprecipitated (rabbit anti-GGA1 is listed among the IP antibodies) from CD cells with Rabep1 knockdown and from wild-type and Pkd1−/− MEFs; western blot
T1 sequence: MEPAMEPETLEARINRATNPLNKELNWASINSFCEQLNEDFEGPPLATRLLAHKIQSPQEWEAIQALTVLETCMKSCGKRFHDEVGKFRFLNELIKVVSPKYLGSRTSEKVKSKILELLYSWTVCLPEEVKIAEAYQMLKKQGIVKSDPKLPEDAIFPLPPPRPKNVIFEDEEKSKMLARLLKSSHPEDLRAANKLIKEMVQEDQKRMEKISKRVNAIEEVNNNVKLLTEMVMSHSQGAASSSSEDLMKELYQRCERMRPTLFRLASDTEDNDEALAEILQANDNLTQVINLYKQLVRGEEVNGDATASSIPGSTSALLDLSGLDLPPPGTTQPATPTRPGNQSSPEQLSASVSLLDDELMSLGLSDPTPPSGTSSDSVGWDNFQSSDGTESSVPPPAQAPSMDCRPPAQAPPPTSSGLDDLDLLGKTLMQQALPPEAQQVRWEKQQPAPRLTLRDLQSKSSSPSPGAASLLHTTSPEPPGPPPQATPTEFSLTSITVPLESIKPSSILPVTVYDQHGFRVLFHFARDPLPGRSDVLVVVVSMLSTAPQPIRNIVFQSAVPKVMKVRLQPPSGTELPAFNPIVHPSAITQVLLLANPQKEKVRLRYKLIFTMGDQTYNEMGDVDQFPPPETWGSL

[2] = biological target: Endogenous mouse polycystin-1 (mouse (endogenous in MEFs, CD cells, kidney)) (UniProt O08852); assay: co-IP; endogenous PC1 immunoprecipitated with anti-PC1 (α-CC) from lysates of mouse MEFs (wild type, Pkd2−/−, Pkd1^V/V), CD cells (also with Rabep1, GGA1 or Arl3 shRNA knockdown) and kidneys; western blot; lysis buffer 20 mM sodium phosphate pH 7.2, 150 mM NaCl, 1 mM EDTA, 10% glycerol, 1% Triton X-100
[3] = biological target: Full-length wild-type mouse polycystin-1 with a C-terminal FLAG tag (mouse) (UniProt O08852); assay: co-IP; lysates of induced MDCK cells; reciprocal immunoprecipitation with anti-FLAG or anti-PC2; western blot with anti-PC1 (7e12) or anti-PC2; lysis buffer 20 mM sodium phosphate pH 7.2, 150 mM NaCl, 1 mM EDTA, 10% glycerol, 1% Triton X-100
[4] = biological target: Full-length mouse polycystin-1 with a C-terminal FLAG tag, L4219P and A4222P within the coiled-coil domain (mouse) (UniProt O08852); assay: as above
[5] = biological target: Mouse polycystin-1 terminating at R4218X with a C-terminal FLAG tag before the stop codon (mouse) (UniProt O08852); assay: as above
[6] = biological target: C-terminal Myc-tagged PC1 of Pkd1^MYC/MYC embryos (mouse (endogenous knock-in in embryos)) (UniProt O08852); assay: co-IP; lysates of Pkd1^MYC/MYC, Pkd1^ΔCMYC/ΔCMYC and untagged wild-type mouse embryos; Myc-tagged PC1 immunoprecipitated (rabbit anti-Myc is listed among the IP antibodies); western blot
[7] = biological target: T1, Endogenous mouse GGA1 (Golgi-localized, gamma adaptin ear-containing, ARF-binding) (mouse (endogenous in CD cells, MEFs, embryos)); assay: co-IP; endogenous GGA1 immunoprecipitated (rabbit anti-GGA1 is listed among the IP antibodies) from CD cells with Rabep1 knockdown and from wild-type and Pkd1−/− MEFs; western blot; remark: listed apart in the source
[8] = biological target: Endogenous mouse polycystin-1 (mouse (endogenous in MEFs, CD cells, kidney)) (UniProt O08852); assay: co-IP; endogenous PC1 immunoprecipitated with anti-PC1 (α-CC) from lysates of mouse MEFs (wild type, Pkd2−/−, Pkd1^V/V), CD cells (also with Rabep1, GGA1 or Arl3 shRNA knockdown) and kidneys; western blot; lysis buffer 20 mM sodium phosphate pH 7.2, 150 mM NaCl, 1 mM EDTA, 10% glycerol, 1% Triton X-100; remark: listed apart in the source
[9] = biological target: Non-cleavable polycystin-1 expressed from the Pkd1^V knock-in allele (mouse (endogenous knock-in in Pkd1^V/V MEFs and kidneys)) (UniProt O08852); assay: as above

With “Endogenous mouse Arl3 (from UniProt Q9WUL7 1-182)” the binding [1] was “binds”.

“Endogenous mouse Arf4 (from UniProt P61750 1-180)” was tested, and the binding [2] was “no binding”.

For “Endogenous polycystin-2 of MDCK cells (from UniProt A0A8I3NZH4 1-977)”, the binding [3] was “binds”, the binding [4] was “no binding” and the binding [5] was “no binding”.

B1: Endogenous mouse Rabep1 (protein, UniProt O35551 1-862)
chain: MAQPGPAPQPDVSLQQRVAELEKINAEFLRAQQQLEQEFNQKRAKFKELYLAKEEDLKRQNAVLQAAQDDLGHLRTQLWEAQAEMENIKAIATVSENTKQEAIDEVKRQWREEVASLQAIMKETVRDYEHQFHLRLEQERAQWAQYRESAEREIADLRRRLSEGQEEENLENEMKKAQEDAEKLRSVVMPMEKEIAALKDKLTEAEDKIKELEASKVKELNHYLEAEKSCRTDLEMYVAVLNTQKSVLQEDAEKLRKELHEVCHLLEQERQQHNQLKHTWQKANDQFLESQRLLMRDMQRMEIVLTSEQLRQVEELKKKDQEEDEQQRVNKRKDNKKTDTEEEVKIPVVCALTQEESSTPLSNEEEHLDSTHGSVHSLDADLMLPSGDPFSKSDNDMFKDGLRRAQSTDSLGTSSSLQSKALGYNYKAKSAGNLDESDFGPLVGADSVSENFDTVSLGSLQMPSGFMLTKDQERAIKAMTPEQEETASLLSSVTQGMESAYVSPSGYRLVSETEWNLLQKEVHNAGNKLGRRCDMCSNYEKQLQGIQIQEAETRDQVKKLQLMLRQANDQLEKTMKEKQELEDFLKQSAEDSSHQISALVLRAQASEVLLEELQQSFSQAKRDVQEQMAVLMQSREQVSEELVRLQKDNDSLQGKHSLHVSLQLAEDFILPDTVEVLRELVLKYRENIVHVRTAADHMEEKLKAEILFLKEQIQAEQCLKENLEETLQLEIENCKEEIASISSLKAELERIKVEKGQLESTLREKSQQLESLQEMKVNLEEQLKKETAAKATVEQLMFEEKNKAQRLQTELDVSEQVQRDFVKLSQTLQVQLERIRQADSLERIRAILNDTKLTDINQLPET
With B1 the binding [6] was “binds”, the binding [7] was “binds” and the binding [8] was “binds”.

B2: Endogenous mouse polycystin-2 (protein, UniProt O35245 1-966)
chain: MVNSRRVQPQPPGDAGRSPAPRASGPGRLVAGGAGLAVPGGLGEQRGLEIEMERIRQAAARDPPAGASASPSPPLSSCSRQAWSRDNPGFEAEEDDDDDEVEGEEGGMVVEMDVEWRPGSRRSASSSAVSSVGARGRGLGSYRGAAHLSGRRRRLEDQGAQCPSPAGGGDPLHRHLPLEGQPPRVAWAERLVRGLRGLWGTRLMEESNANREKYLKSVLRELVTYLFFLVVLCILTYGMMSSNVYYYTRTLSQLFIDTPVSKTEKTNFKTLSSMEDFWKFTEGSFLDGLYWKAQTSNHTQADNRSFIFYENLLLGVPRLRQLRVRNGSCSIPQDLRDEIKECYDVYSVSSEDRAPFGPRNGTAWMYTSEKELNGSSHWGIIASYSGAGYYLDLSRTREETAAQLAGLRRNFWLDRGTRAAFIDFSVYNANINLFCVVRLLAEFPATGGVVPSWQFQPVKLIRYVTAFDFFLAACEIIFCFFIIYYVVEEILEIRIHRLSYFRSFWNCLDVVIVVLSVVAMVINIYRMSNAEGLLQFLEDQNSFPNFEHVAYWQIQFNNISAVMVFLVWIKLFKFINFNRTMSQLSTTMSRCAKDLFGFTIMFSIIFLAYAQLAYLVFGTQVDDFSTFQECIFTQFRIILGDINFAEIEEANRVLGPLYFTTFVFFMFFILLNMFLAIINDSYSEVKSDLAQQKAEMELSDLIRKGCQKALVKLKLKRNTVDAISESLRQGGGKLNFDELRQDLKGKGHTDAEIEAIFTKYDQDGDQELTEREHQQMRDDLEKEREDLDLEHSSLPRPMSSRSFPRSLDDSEEEDDEDSGHSSRRRGSISSGVSYEEFQVLVRRVDRMEHSIGSIVSKIDAVIVKLEIMERAKLKRREVLGRLLDGVAEDARLGRDSEIHREQMERLVREELERWESDDAASQTGHGVSTQVGLGGQPHPRNPRPPSSQSAEGLEGGGGNGSANVHA
With B2 the binding [6] was “binds”, the binding [8] was “binds” and the binding [9] was “binds”.
